# In a collection of fitness landscapes (doi:10.1016/j.celrep.2020.107928):
# The full ranking holds about 81,000 sequences; the median of “one-hybrid fitness for binding parS DNA” is about -0.17, and the highest 2% start at about 0.51. The list shows a part of the results.
# B1: Caulobacter ParB omega fusion; a variant is named by its letters at X, in order, B8GW30 (parent)
# chain: MESVVVGEPGMSEGRRGLGRGLSALLGEVDAAPAQAPGEQLGGSREAPIEILQRNPDQPRRTFREEDLEDLSNSIREKGVLQPILVRPSPDTAGEYQIVAGERAWRAAQRAGLKTVPIMVRELDDLAVLEIGIIENVQRADLNVLEEALSYKVLMEKFERTQENIAQTIGKSXSHVANXMRLLXLPDEVQSYLVSGELTAXHARAIAAAADPVALAKQIIEGGLSVRETEALARKAPNLSAGKSKGGRPPRVKDTDTQALESDLSSVLGLDVSIDHRGSTGTLTITYATLEQLDDLCNRLTRGI
# Variants of: B1
# Assay: one-hybrid fitness for binding parS DNA (scaled: cognate 1, non-cognate 0); higher = stronger binding
# Conditions: with parS DNA site
# How it was run: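 In E. coli USO, a HIS3 reporter with its site placed 19 bp from the promoter was used to select Caulobacter ParB variants randomised at four specificity codons. Growth lasted 48 hours at 37°C on histidine-free M9 containing 0.1 mM IPTG and 5 mM 3-AT. Fitness was taken as the log change in variant-to-wild-type read ratio from Illumina sequencing of pre- and post-selection plasmids, rescaled between the non-cognate and cognate sites.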
row,Variant,one-hybrid fitness for binding parS DNA
1,CVRS,≤ 0.2
2,EVAG,≤ 0.2
3,AQCT,≤ 0.2
4,WAGR,≤ 0.2
5,QCTD,≤ 0.2
6,ANAC,≤ 0.2
7,QHVI,≤ 0.2
8,ANAL,≤ 0.2
9,REHE,≤ 0.2
10,TDKY,≤ 0.2
11,GSPT,≤ 0.2
12,LDHK,≤ 0.2
13,HYLV,≤ 0.2
14,HENL,≤ 0.2
15,GGGN,≤ 0.2
16,KLSY,≤ 0.2
17,VNAF,≤ 0.2
18,RWLK,≤ 0.2
19,KMYT,≤ 0.2
20,MAIH,≤ 0.2
21,RRKC,0.649
22,RYLH,≤ 0.2
23,QTTR,≤ 0.2
24,HVTN,≤ 0.2

row,Variant,one-hybrid fitness for binding parS DNA
1,HDGT,≤ 0.2
2,RKMC,0.897
3,PAIG,≤ 0.2
4,IPSM,≤ 0.2
5,NYAS,≤ 0.2
6,LWGM,0.256
7,RTTS,0.943
8,QRAS,≤ 0.2
9,YPVG,≤ 0.2
10,DLTC,≤ 0.2
11,PFLT,≤ 0.2
12,TPNG,≤ 0.2
13,RQKW,0.29
14,QRFW,≤ 0.2
15,QAQG,≤ 0.2
16,SSGA,≤ 0.2
17,PGVT,≤ 0.2
18,QCYF,≤ 0.2
19,YLPS,≤ 0.2
20,TRKE,≤ 0.2
21,AIFL,≤ 0.2
22,DMWV,≤ 0.2
23,YRRD,≤ 0.2
24,EIVT,≤ 0.2

row,Variant,one-hybrid fitness for binding parS DNA
1,TQTG,≤ 0.2
2,FAAR,≤ 0.2
3,KQSN,≤ 0.2
4,HAGV,≤ 0.2
5,YNER,≤ 0.2
6,SKDV,≤ 0.2
7,WTHL,≤ 0.2
8,PPIA,≤ 0.2
9,HCTL,≤ 0.2
10,PQKT,≤ 0.2
11,THYS,≤ 0.2
12,DINR,≤ 0.2
13,MCTK,≤ 0.2
14,TRNI,≤ 0.2
15,PLAS,≤ 0.2
16,VPYG,≤ 0.2
17,GMCW,≤ 0.2
18,DLVR,≤ 0.2
19,EDMG,≤ 0.2
20,RTSC,0.969
21,LVTW,≤ 0.2
22,PPTY,≤ 0.2
23,YRNI,≤ 0.2
24,QILW,≤ 0.2

row,Variant,one-hybrid fitness for binding parS DNA
1,PGFF,≤ 0.2
2,PILS,≤ 0.2
3,LPQL,≤ 0.2
4,GNAR,≤ 0.2
5,RSLL,≤ 0.2
6,IKDN,≤ 0.2
7,NVKW,≤ 0.2
8,CKCG,≤ 0.2
9,ADRP,≤ 0.2
10,MVKY,≤ 0.2
11,CAVS,≤ 0.2
12,MYLG,≤ 0.2
13,ADVE,≤ 0.2
14,KWAT,≤ 0.2
15,FYTS,≤ 0.2
16,SCMC,≤ 0.2
17,PFNV,≤ 0.2
18,HYPW,≤ 0.2
19,RRLN,0.396
20,AQGT,≤ 0.2
21,KMCS,≤ 0.2
22,RHMK,≤ 0.2
23,KQMN,≤ 0.2
24,LFGV,≤ 0.2

row,Variant,one-hybrid fitness for binding parS DNA
1,KRPP,≤ 0.2
2,WVLG,≤ 0.2
3,PANR,≤ 0.2
4,FPHC,≤ 0.2
5,RNRF,≤ 0.2
6,RIGK,≤ 0.2
7,VCVT,≤ 0.2
8,QRTE,≤ 0.2
9,QTHP,≤ 0.2
10,HYTP,≤ 0.2
11,TMEN,≤ 0.2
12,ADLD,≤ 0.2
13,WASQ,≤ 0.2
14,EGNR,≤ 0.2
15,DPWT,≤ 0.2
16,RKSQ,≤ 0.2
17,PKQL,≤ 0.2
18,TESY,≤ 0.2
19,HRCS,0.362
20,VYTP,≤ 0.2
21,TQKY,≤ 0.2
22,GQMT,≤ 0.2
23,PHVS,≤ 0.2
24,MDWV,≤ 0.2

row,Variant,one-hybrid fitness for binding parS DNA
1,GTAR,≤ 0.2
2,PAEC,≤ 0.2
3,WHEL,≤ 0.2
4,PNKC,≤ 0.2
5,HNKE,≤ 0.2
6,YQRV,≤ 0.2
7,RFGS,0.969
8,KKRN,≤ 0.2
9,PDSI,≤ 0.2
10,LFTT,≤ 0.2
11,KVYT,≤ 0.2
12,FDHR,≤ 0.2
13,SRFE,≤ 0.2
14,VPKY,≤ 0.2
15,LCLL,≤ 0.2
16,HSVE,≤ 0.2
17,CDQK,≤ 0.2
18,VLIF,≤ 0.2
19,CNPS,≤ 0.2
20,EVAR,≤ 0.2
21,QNAH,≤ 0.2
22,CKRA,≤ 0.2
23,AGKR,≤ 0.2
24,NSRG,≤ 0.2

row,Variant,one-hybrid fitness for binding parS DNA
1,RCLM,0.383
2,RQQK,≤ 0.2
3,SQTD,≤ 0.2
4,AAYN,≤ 0.2
5,AWPF,≤ 0.2
6,LMTL,≤ 0.2
7,DDTD,≤ 0.2
8,RDML,≤ 0.2
9,SALR,≤ 0.2
10,AGGV,≤ 0.2
11,QESA,≤ 0.2
12,GYVT,≤ 0.2
13,KTSY,≤ 0.2
14,MSVV,≤ 0.2
15,EYYR,≤ 0.2
16,KNKL,≤ 0.2
17,RSDW,≤ 0.2
18,VWCG,≤ 0.2
19,DQKY,≤ 0.2
20,RMYE,≤ 0.2
21,RHYD,≤ 0.2
22,VQWT,≤ 0.2
23,VYNY,≤ 0.2
24,DMNF,≤ 0.2

row,Variant,one-hybrid fitness for binding parS DNA
1,YQYS,≤ 0.2
2,TNTS,≤ 0.2
3,CNIL,≤ 0.2
4,VASQ,≤ 0.2
5,QRPG,≤ 0.2
6,RRAC,0.597
7,TTNG,≤ 0.2
8,LKKV,≤ 0.2
9,IGKL,≤ 0.2
10,HASA,≤ 0.2
11,YDIE,≤ 0.2
12,MMNC,≤ 0.2
13,TDRR,≤ 0.2
14,RFPR,≤ 0.2
15,LNNA,≤ 0.2
16,SNVS,≤ 0.2
17,QLGT,≤ 0.2
18,PRFV,≤ 0.2
19,ASES,≤ 0.2
20,AICA,≤ 0.2
21,HILT,≤ 0.2
22,GAQA,≤ 0.2
23,ARAH,≤ 0.2
24,DAIS,≤ 0.2

row,Variant,one-hybrid fitness for binding parS DNA
1,HLQW,≤ 0.2
2,QYAV,≤ 0.2
3,DTSW,≤ 0.2
4,EDSW,≤ 0.2
5,RLVI,≤ 0.2
6,WPIG,≤ 0.2
7,DSYP,≤ 0.2
8,AVQF,≤ 0.2
9,VPWF,≤ 0.2
10,HYCC,≤ 0.2
11,EKNC,≤ 0.2
12,YCNT,≤ 0.2
13,PEAK,≤ 0.2
14,DPCA,≤ 0.2
15,NVHP,≤ 0.2
16,LYMR,≤ 0.2
17,PRDV,≤ 0.2
18,RRIF,≤ 0.2
19,DKRC,≤ 0.2
20,ECIG,≤ 0.2
21,TTGC,≤ 0.2
22,CQRR,≤ 0.2
23,SILD,≤ 0.2
24,SACT,≤ 0.2

row,Variant,one-hybrid fitness for binding parS DNA
1,KSYS,≤ 0.2
2,YMCL,≤ 0.2
3,ILQK,≤ 0.2
4,FPSH,≤ 0.2
5,CSSM,≤ 0.2
6,NTVA,≤ 0.2
7,EIDN,≤ 0.2
8,GGLC,≤ 0.2
9,KSCV,≤ 0.2
10,IRKR,≤ 0.2
11,SWNW,≤ 0.2
12,WAKY,≤ 0.2
13,KTTW,≤ 0.2
14,FTYC,≤ 0.2
15,KVHI,≤ 0.2
16,KMAR,≤ 0.2
17,PYCH,≤ 0.2
18,YYRT,≤ 0.2
19,MNLC,≤ 0.2
20,PTHM,≤ 0.2
21,CRYC,≤ 0.2
22,VMMS,≤ 0.2
23,GPAH,≤ 0.2
24,SPGS,≤ 0.2

row,Variant,one-hybrid fitness for binding parS DNA
1,PHLH,≤ 0.2
2,ATRW,≤ 0.2
3,TECT,≤ 0.2
4,PPYM,≤ 0.2
5,AIAR,≤ 0.2
6,QFYR,≤ 0.2
7,TKDD,≤ 0.2
8,GDMS,≤ 0.2
9,QRWN,≤ 0.2
10,GAFS,≤ 0.2
11,TIYS,≤ 0.2
12,WNES,≤ 0.2
13,EAMF,≤ 0.2
14,NIKS,≤ 0.2
15,WQCW,≤ 0.2
16,KYTT,≤ 0.2
17,DDET,≤ 0.2
18,TCRT,≤ 0.2
19,TMLW,≤ 0.2
20,ICDW,≤ 0.2
21,HQVE,≤ 0.2
22,ISET,≤ 0.2
23,TVSH,≤ 0.2
24,YVKS,≤ 0.2

row,Variant,one-hybrid fitness for binding parS DNA
1,STKS,≤ 0.2
2,TRTM,≤ 0.2
3,NWTE,≤ 0.2
4,PGVI,≤ 0.2
5,VARA,≤ 0.2
6,PYRF,≤ 0.2
7,VWVG,≤ 0.2
8,KAIG,≤ 0.2
9,VCNS,≤ 0.2
10,NLGN,≤ 0.2
11,REFM,≤ 0.2
12,FIST,≤ 0.2
13,ISID,≤ 0.2
14,VARG,≤ 0.2
15,GLQL,≤ 0.2
16,GPVV,≤ 0.2
17,NVQA,≤ 0.2
18,RQFR,≤ 0.2
19,YVVV,≤ 0.2
20,HNQP,≤ 0.2
21,AYHR,≤ 0.2
22,TGKS,≤ 0.2
23,AQLL,≤ 0.2
24,YLVS,≤ 0.2

row,Variant,one-hybrid fitness for binding parS DNA
1,TKLS,≤ 0.2
2,NTIL,≤ 0.2
3,FHNL,≤ 0.2
4,LKPT,≤ 0.2
5,HYSA,≤ 0.2
6,PRDW,≤ 0.2
7,RKYQ,0.213
8,HIKS,≤ 0.2
9,NHTT,≤ 0.2
10,LIIY,≤ 0.2
11,GFKR,≤ 0.2
12,NILT,≤ 0.2
13,QIAT,≤ 0.2
14,TVPI,≤ 0.2
15,GIPH,≤ 0.2
16,WICS,0.216
17,MKST,≤ 0.2
18,RQSD,≤ 0.2
